Assay results as given in the RNAGym collection of RNA variant scans (doi:10.7554/elife.90254).
Read counts are not given, so values of variants with three or more changes are uncertain.

B1: LINE1-mini (parent)
chain: GGCAGAGCUCAACACAGCGUGGCAAAGUGGCUGUGGCUAGACUGCC

Variants of: B1
Assay: self-cleavage, relative activity (ratio to wild type); higher = more cleavage; in vitro, sequencing; the parent is a self-cleaving ribozyme
With A11C C18A G30U the self-cleavage was 0.09.
In the case of A16U G30U G36C, the self-cleavage is reported as 0.01.
In the case of U9A G29A G40A, the self-cleavage is reported as 0.04.
C10A U20A G33A showed a self-cleavage of 0.05.
With A11C C13G G17C A25C G29A the self-cleavage was 0.01.
For G29U G36C A41G C42G, the self-cleavage was 0.12.
C8U C15U A24C gave a self-cleavage of 0.63.
Variant G1U G5U C8U A11U G29C U43A G44U has a self-cleavage of 0.02.
G5A A6C U9C U20G G29U G30U showed a self-cleavage of 0.04.
C13A C37A U38C gave a self-cleavage of 0.04.
For G7U U20A G27U G29U G40A C45U, the self-cleavage was 0.11.
In the case of G5A G29A C45G, the self-cleavage is reported as 0.08.
For A12U C18A A24U G36A, the self-cleavage was 0.06.
With G1C G33C G40C the self-cleavage was 0.
A14G A16C U28C C31A U38C C45G gave a self-cleavage of 0.01.
Work on G2U C18U G29A G33A U38A yielded a self-cleavage of 0.18.
In the case of G5A G33A G36U C37U, the self-cleavage is reported as 0.07.
C8A U9G A12C C42U showed a self-cleavage of 0.17.
Work on G5C U20G G29A G40C yielded a self-cleavage of 0.01.
A4C U32G C42G showed a self-cleavage of 0.
Variant A6C A12G G44C has a self-cleavage of 0.02.
Variant G2U C23A G33C G40A has a self-cleavage of 0.01.
In the case of G2C U9A A16G G35U C37U, the self-cleavage is reported as 0.1.
In the case of U9G C13U U32C U34C, the self-cleavage is reported as 0.11.
C13U G22A A41C gave a self-cleavage of 0.04.
G7U U9A C15A U32C showed a self-cleavage of 0.69.
Variant A11C C18G U38C C42U has a self-cleavage of 0.
Work on A16G G30A C42A yielded a self-cleavage of 0.02.
For G1C G2U C8U A12U, the self-cleavage was 0.02.
Work on C31U U34C G36A G40A C42A yielded a self-cleavage of 0.
In the case of C3U C18U U32C U38A, the self-cleavage is reported as 0.05.
Work on A11U C18U A26C U28A G35C U38C A39U yielded a self-cleavage of 0.
For G22U A26G G30A G36C U38C A39U A41C, the self-cleavage was 0.07.
Variant C3A G19A C31G G36C U38C has a self-cleavage of 0.06.
For G1U A26C G33U A41U, the self-cleavage was 0.04.
Work on C8U C18G C23U C46G yielded a self-cleavage of 0.07.
C8A G17A G21A G29A G30C G44C showed a self-cleavage of 0.11.
Work on G2A A16C G21A A24G yielded a self-cleavage of 0.06.
Work on G7A C13A C18G A25U G36U C37A yielded a self-cleavage of 0.07.
With C3G U9G C13U C15U G19A A39C the self-cleavage was 0.05.
U9G A16C U43A G44U C45G showed a self-cleavage of 0.02.
For C10U A16G G33U C45U, the self-cleavage was 0.15.
Variant A6C U20G G35C has a self-cleavage of 0.13.
Variant C8A G21A A41G has a self-cleavage of 0.32.
With U9C C15U G30A C45U C46A the self-cleavage was 0.1.
Variant A4C U9A A11G C15A A26G G30A has a self-cleavage of 0.01.
C10A A12C U20G G21U A39U G44U gave a self-cleavage of 0.
G1C G30C G44A showed a self-cleavage of 0.02.
For U20A A25G C46A, the self-cleavage was 0.05.
G17C U28G C42G C46A showed a self-cleavage of 0.03.
Variant U20A G30A U38A C46G has a self-cleavage of 0.23.
C18U U32G U34C C37U G44A gave a self-cleavage of 0.03.
With G5U G27U G44U the self-cleavage was 0.06.
For C3A C23G G40C U43A, the self-cleavage was 0.15.
For G1U C13U U20A C46U, the self-cleavage was 0.04.
G2C C10A G30A C42A gave a self-cleavage of 0.01.
In the case of C18G G27U U34A G36U, the self-cleavage is reported as 0.03.
For A12U G36A C45A, the self-cleavage was 0.
For A14G U28G G33U C46U, the self-cleavage was 0.02.
For C3A C8A U43A, the self-cleavage was 0.79.
Work on A6C C8A G17A C18G C23U yielded a self-cleavage of 0.01.
With A6U A12C A26U G30C C37U A39C the self-cleavage was 0.01.
With U9A C23U U32C the self-cleavage was 0.29.
Variant G21C C23G G27U C31U G40A C45U has a self-cleavage of 0.01.
A14G G19A G29A gave a self-cleavage of 1.29.
Work on A4G G27A G35C yielded a self-cleavage of 0.1.
Work on G7U G21U C31G U38C yielded a self-cleavage of 0.15.
Variant G1U G2C U28C has a self-cleavage of 0.03.
In the case of G1A C18U G21A A39U C42G, the self-cleavage is reported as 0.
With A6G A11U U28C G33A A41C C42A the self-cleavage was 0.
For G5C G17A G21A G35A, the self-cleavage was 0.02.
In the case of C3A A25C A26U G30C, the self-cleavage is reported as 0.21.
Work on G2U G17U C23G G29A C31A yielded a self-cleavage of 0.07.
In the case of C3A C8U U38C, the self-cleavage is reported as 0.51.
A26G G27U C37A showed a self-cleavage of 0.01.
Variant A4U G17C A41C has a self-cleavage of 0.01.
With G27U G36C C37A the self-cleavage was 0.07.
Work on A4U C8G C10U A25U C46G yielded a self-cleavage of 0.02.
With A6U U20C A25U the self-cleavage was 0.41.
A6G C10A G21A U32G gave a self-cleavage of 0.01.
With G7U C31G C45A the self-cleavage was 0.01.
In the case of C8G G22C C37G U43C, the self-cleavage is reported as 0.01.
A4C A11U A16C G19A C23A G35C gave a self-cleavage of 0.02.
Variant C3U C10U A14G G21U G35U G40A has a self-cleavage of 0.06.
Work on C18A G19U A24C U38G yielded a self-cleavage of 0.02.
In the case of A12G G17A G30A, the self-cleavage is reported as 0.
In the case of G1U A4C C31A, the self-cleavage is reported as 0.01.
G1A G19C G22A C37A gave a self-cleavage of 0.03.
For C3A G7C C8G, the self-cleavage was 0.16.
G21U A26C G36U gave a self-cleavage of 0.05.
In the case of G2U G17C G21C G36U U38G, the self-cleavage is reported as 0.01.
Work on G5A G7A C46U yielded a self-cleavage of 0.21.
With G22A A26C G27U U32G C42A the self-cleavage was 0.08.
A16U C23G C37U gave a self-cleavage of 0.06.
In the case of A12U C23U C37U, the self-cleavage is reported as 0.
A6U U20C C23U showed a self-cleavage of 0.15.
In the case of G5C C10A G30C C37G C42U, the self-cleavage is reported as 0.02.
A12U G21U G29A gave a self-cleavage of 0.11.
G17C G21U C31G gave a self-cleavage of 0.13.
A4U C10A G30C C31A G44U showed a self-cleavage of 0.01.
A16C A24C U34C A41U showed a self-cleavage of 0.1.
In the case of A4G C13A G33A, the self-cleavage is reported as 0.09.
Work on A6U U9G G40A C42A yielded a self-cleavage of 0.06.
For A6U U20G A24G, the self-cleavage was 0.37.
Variant A12C G17C C23A has a self-cleavage of 0.02.
With C8A C18G U43A the self-cleavage was 0.01.
A4G C23A A25G U28C G33U U38A C45U gave a self-cleavage of 0.04.
In the case of C3A A4U G5A U9G G21U, the self-cleavage is reported as 0.22.
For G7C G22U G40U, the self-cleavage was 0.6.
Variant A12G A16U G19A G22U has a self-cleavage of 0.04.
G2U A6C G7U U20C C23A G27A gave a self-cleavage of 0.02.
C8U C15G G36A A39C showed a self-cleavage of 0.03.
With G2C C15A G17C U38C the self-cleavage was 0.04.
Variant G5U G19A G44C has a self-cleavage of 0.05.
With A14U C15G G21U G29U C46A the self-cleavage was 0.
For A4U C23U U34G C37U C46U, the self-cleavage was 0.01.
In the case of G2C A12U G22A G29U, the self-cleavage is reported as 0.66.
With C15A G19A C23G the self-cleavage was 0.04.
C8G G22C C31U showed a self-cleavage of 0.06.
C15A G19A A25U C37U showed a self-cleavage of 0.03.
Work on G2A C8U A26U yielded a self-cleavage of 0.82.
C10A G29C U32G gave a self-cleavage of 0.
In the case of A24C G29C G35C C46U, the self-cleavage is reported as 0.27.
In the case of C10G U34A G35U G36U, the self-cleavage is reported as 0.02.
A4C A11U A25G C37A C45U C46A showed a self-cleavage of 0.
With G5A A11G G19A G22A C23G A24C A25C C46U the self-cleavage was 0.
In the case of G17A A24C C37A A39G, the self-cleavage is reported as 0.05.
In the case of G2A C23A C31A, the self-cleavage is reported as 0.06.
Variant U9A G33A U43C has a self-cleavage of 0.08.
C3A C15U A16U U20C gave a self-cleavage of 0.17.
For C13G C18G C23A C42G G44U, the self-cleavage was 0.02.
Work on U28G A39U G44U yielded a self-cleavage of 0.01.
Work on U9G A16G G21A yielded a self-cleavage of 0.07.
For G1C C3G C8A C13G A25C U28G, the self-cleavage was 0.16.
Variant A6C C18G C23A A25G has a self-cleavage of 0.04.
In the case of G29U G40A C42A, the self-cleavage is reported as 0.03.
G5A A11U G19C U20G gave a self-cleavage of 0.01.
Variant A6C U34C A41G C42U has a self-cleavage of 0.11.
For G2A A24G C37A, the self-cleavage was 0.74.
Work on G1C A14G G29U U38A yielded a self-cleavage of 0.04.
With G22U G35U G40U the self-cleavage was 0.02.
A12C C13G G36U showed a self-cleavage of 0.07.
Variant A4C A12U G30C C31U G33C C42A has a self-cleavage of 0.01.
In the case of A12G C31U G44U, the self-cleavage is reported as 0.02.
G1C U38A C46G gave a self-cleavage of 0.04.
G2A A16C G33U gave a self-cleavage of 0.04.
Variant G7C C8A G19U G44C has a self-cleavage of 0.12.
Variant A16G G40C C45G C46A has a self-cleavage of 0.04.
With A14U A16U G36U A39G the self-cleavage was 0.02.
For G2U A24U C42A, the self-cleavage was 0.02.
For G2C A14U G29U, the self-cleavage was 0.08.
Variant C3G A16C C37G U38A A41C has a self-cleavage of 0.02.
Variant C13A A16C C45G has a self-cleavage of 0.07.
With A6U G21U G27A G33A the self-cleavage was 0.22.
With A14C G17U C37A U38C the self-cleavage was 0.02.
G1C G7C C31G showed a self-cleavage of 0.04.
With A14C G17C G36A the self-cleavage was 0.09.
Variant A11G C18G G40U has a self-cleavage of 0.03.
For G19A G22U A41U, the self-cleavage was 0.23.
G5A U9G G29U gave a self-cleavage of 0.34.
In the case of G5A G35U G40C, the self-cleavage is reported as 0.01.
Work on C3U A14G A16U G27A yielded a self-cleavage of 0.29.
For A16C C31U U38C, the self-cleavage was 0.04.
For G5C U9G U20A G21A C37U A39U, the self-cleavage was 0.01.
Work on C8G C10G U34A C42U yielded a self-cleavage of 0.01.
Variant U9C C10U A11C C13A C15U C23U A41U G44C has a self-cleavage of 0.
Variant A4G U28G U34G G40U has a self-cleavage of 0.03.
